# Test results taken from the RNAGym collection of RNA variant scans (doi:10.7554/elife.90254).
# The source gives no read counts; variants with many changes may rest on few reads.
# B1: LINE1-mini (parent)
# chain: GGCAGAGCUCAACACAGCGUGGCAAAGUGGCUGUGGCUAGACUGCC
# Variants of: B1
# Test: self-cleavage, relative activity (ratio to wild type); higher = more cleavage; in vitro, sequencing; the parent is a self-cleaving ribozyme
row,Variant,self-cleavage
1,GGCAGAGCUCAACGCAGCGUGGAAAAGUGGCUGUGGCUAGCCUGCC [A14G C23A A41C],0.01
2,GACAGAGCGCAAUGCAGAGUGGCAAGGUGGCUUUGGCUAGACUGCA [G2A U9G C13U A14G C18A A26G G33U C46A],0.03
3,GGCAGAGCUCAGCACCGCGUGGCAAAGGGGCUGUGGCUAGACUGCC [A12G A16C U28G],0.01
4,GGCAGAGUUCAACACAGUGUGGCAAAAUGGCUGUGGCUAGACUGCC [C8U C18U G27A],0.14
5,GGCAGAGCUGAACGCUGCGUGGCAAAGUGGCUGUGGGUAGACUGCC [C10G A14G A16U C37G],0.01
6,GGCAGAGCUCAACACAGAGUAGCAAAGAGGCUGUGGCUAGACUGCC [C18A G21A U28A],0.95
7,GGCAGAGCUCAAAACCGCGUGGUAAAGUGGCUGUGUCUUGACAGCC [C13A A16C C23U G36U A39U U43A],0
8,GCUAGAGCUCCACACAGCGUGGCAAAGUGGCUGUUGCUAGAGUGCC [G2C C3U A11C G35U C42G],0.02
9,GGCAGAGCUCAACACGGCCUGGCAAAGUGCCUGUGGCCAGACUGCC [A16G G19C G30C U38C],0.03
10,GCCAGCGCUCAACACAGCGUGGCAAAGGGGCAGUGGCUAGACUGCA [G2C A6C U28G U32A C46A],0.02
11,GGAGGAGCUCAACACAGCGUGGCAAAGUGGCCGUGGCAAGAGUGCC [C3A A4G U32C U38A C42G],0.07
12,GGCAGAGCUCAACACAGCGUGGCAGAGCGGCUCUGGCUAGACUGCC [A25G U28C G33C],0.05
13,GGCAGAGCUCAAAACAGCGUGGCAAAGUGGCUAUGGCUAUACUGCC [C13A G33A G40U],0.02
14,GGCAAAGCUCAACACAGCGCGGAAAAGUGGCCGUGGCUAGACUGCC [G5A U20C C23A U32C],0.06
15,GGCAGAGCUCAACACAGCGUGGCUAAGUGGCUUUGGAUAGACCGCC [A24U G33U C37A U43C],0.03
16,GGCAAAGCUCAAUAGAGCGUGGCUAAGUGGCUGUGGCUAGACUGCC [G5A C13U C15G A24U],0.02
17,GGCAGAUCUCAACAAAGCGUGGGAAAGUGGCUGAGGUUAGACUGUC [G7U C15A C23G U34A C37U C45U],0.02
18,GGCAAAGCUCACCACAGCGUGGCAAACUGGGUGUGGCUAGACUGCC [G5A A12C G27C C31G],0
19,GGCAGAGCUCAAUACAGCGUGGCAGAGUGGCUGUUGCUAGACUUCC [C13U A25G G35U G44U],0.02

row,Variant,self-cleavage
1,GCCAGAGCUAAACACAGCGUGGCAACGUGGCUGUGGCUAGUAUGCC [G2C C10A A26C A41U C42A],0.01
2,GGCAGAGCUCAACACAGCGUGGUAAAGUGGCUGUGGAUUGACUGCC [C23U C37A A39U],0.02
3,CGCAUAGUUCAACACAGCGUGACAAAGUUGCUGUGGCUAGACUGCC [G1C G5U C8U G22A G29U],0.01
4,GGCAGAGCUCAACACAGCGUGGCAAAGUGGCUGUGGCUUGAGUGCU [A39U C42G C46U],0.03
5,GGCAGAGCUCAACACAGCGUGGUAGACUGGCUGUGGCUAGAAUGCC [C23U A25G G27C C42A],0.01
6,GGCAGAGUUCAACACAGCCUGGCAAAGUAGCUGUGGGUAGACUGCC [C8U G19C G29A C37G],0.03
7,GUCAGAGCUCAACACAGCGUGGCUAAGUGCCUGUGGUUAGACUGCC [G2U A24U G30C C37U],0.04
8,GGGAGAGCACAACACAGCGUGGCACAGUGGCUGUGGCUAGACUGCC [C3G U9A A25C],0.03
9,GGCAGAGCUCAACACAGCGUGGCAAAGUGCCUGUGGCUAGACGACC [G30C U43G G44A],0.24
10,GGCAGAGCUCAACACAGCGCGGCAAAGUGGCUGCGGCUAGGCUGCC [U20C U34C A41G],0.05
11,GGCAGAGCUCAACACAGCGGGGCAUACUGGCUGUGGCUAGACUCCC [U20G A25U G27C G44C],0.04
12,GGCAAAGCUCAACACAGCGUGGCAAAGUGCAUGUGGCUAGACUGCC [G5A G30C C31A],0.05
13,GGCACAGAUCAAAACAGCGUGGCAUAGUGGCUGUGGCUAGGCUGCC [G5C C8A C13A A25U A41G],0.17
14,GGCAGAGCUCAACACAGCGUGGCAAAGUGGCUGUGGGCUGACUGCC [C37G U38C A39U],0.01
15,GGCCGAGCUCAACACAGCGUGGCAAGGUGGCUGUGGCUAGAGUGCC [A4C A26G C42G],0.16
16,GGAAGAGCUCAACACUGCGCGGCAAAGUGGCUGUGACUAGACUGCC [C3A A16U U20C G36A],0.32
17,GGCAGAGCUCAACACAGCCCGGCAAAGUGGCUGUUGCUAGACUGCA [G19C U20C G35U C46A],0.08
18,GGCAAAGCCCAACACAGCGUGGCAAAAUGGCUGUGGCUAGCCUGCC [G5A U9C G27A A41C],0.02
19,GGCAGAGCUCAACCCAGCGUCGCACAGUGCCUGUGGCUAGACUGCC [A14C G21C A25C G30C],0.04

row,Variant,self-cleavage
1,UGCAUAGCUCAACACAGCGUGGCAAAGGGGCUGUGGCUAGACUGCC [G1U G5U U28G],0.02
2,CGCAGAGCUCAACACGGCGUGGCAAAGUGGCUGUGGCCAGACUGCC [G1C A16G U38C],0.02
3,GGCAGAGCUCAAUACAGCGUGGCAAACCGGCUGUGGCUAGACUGCC [C13U G27C U28C],0.13
4,GGCAGAGUUUAACACAAAGUGGCAAAGUGGCUUUGGCUAGACUGCC [C8U C10U G17A C18A G33U],0.03
5,GGCAGAGCUCGGCACAGCGUGGCAAAGCGGCUGUAGCUAGACUGCC [A11G A12G U28C G35A],0.01
6,GGCAGAGCUCAACACAGCUUGACAAAGUGGCUGUGGCUAGACUGUC [G19U G22A C45U],0.91
7,GGCAGAGCUCAACAAAUCGUGGCAAAGUUGCUGUGGCCAGACUGCC [C15A G17U G29U U38C],0.27
8,GGCAGAGCUCACCACCGCGUGGCAAAGUGGCUAUGGCUAGACUGGC [A12C A16C G33A C45G],0.02
9,GGCAGAGCUCAACACAGCGUGGCAAAGUGGCUGUGGUAAGACCGCC [C37U U38A U43C],0.09
10,GGCAGAGCUUAACACGGCCUGGGAAAGUGGCUGUGGCUAGACUGCC [C10U A16G G19C C23G],0.67
11,GGAAGAGCUAAACACAGCGGGGCAAAGCGGCUGUGGCUAGACUGCC [C3A C10A U20G U28C],0.03
12,AGCAGAGCUCAAGACAGGGUGGCAAAGUGGCUGUGGCUAGACUGCC [G1A C13G C18G],0.03
13,GGAAGAGCUCAACACAGCGUGGCAAUGUGGCUUUGGCUAGACUGCC [C3A A26U G33U],0.18
14,GGCAGAGCACAACACAGCGUGGCAAAGUGGCUUUGGCUAGAUUGCC [U9A G33U C42U],0.03
15,GGCAGAACUCAACACAGCGUAGCAAAGUGGCUGUGGCAAGACUGCC [G7A G21A U38A],0.09
16,GGCAGAGCUAAAUACAGAGUGGCAAUGUGGCUGUGGUUAGACUGCC [C10A C13U C18A A26U C37U],0.01
17,GGCAGAGCUCAGCACAGCGUGGCAAAGUGGCUGUGGCUAGACUCAA [A12G G44C C45A C46A],0.08
18,GGCAGACCUCAACACAGCGUGGCAAAGUUGCUGUGGCUAGUCUGCC [G7C G29U A41U],0.25
